Data as given in ChEMBL document CHEMBL4888484, “Replenishing the malaria drug discovery pipeline: Screening and hit evaluation of the MMV Hit Generation Library 1 (HGL1) against asexual blood stage Plasmodium falciparum ,using a nano luciferase reporter read-out” (2022).
The campaign covered roughly 150,000 compounds. About 540 (0.36%) showed an effect of 50% or more. Some of the results follow.

The compounds below were run on Plasmodium falciparum (assay: Primary screen in NF54 nanoGlo assay, in single point, at 2uM, 72h; a lower Z score goes with more inhibition). Conditions: timepoint 72 hour.
Type: functional, Erythrocyte

Row | SMILES | % Inhibition [%] | Z score
1 | CCC(CC)n1nc(C)cc1C(=O)N[C@@H](C)c1ccc(Cl)cn1 | -7 | 1.06
2 | Cn1cnc(-c2nc(-c3ccc(-c4ccccc4)cc3)no2)n1 | 0 | -0.01
3 | COC(=O)c1ccc(C(=O)OC)c(N)c1C | -7 | 1.15
4 | CC(C)CN(Cc1ccsc1)C(=O)NCCc1ncc[nH]1 | 1 | -0.16
5 | CN1CC(=O)N(c2cccc(NC(=O)NCC3(Cn4cccn4)CC3)c2)C1=O | 2 | -0.46
6 | CCCN(Cc1cccnc1)C(=O)[C@@H](N)c1ccccc1Cl | -1 | 0.11
7 | Cn1cc(NC(=O)CN2CCN(C(=O)OC(C)(C)C)CC2=O)cc(Cl)c1=O | -5 | 0.7
8 | COc1ccc(COCC(=O)N2CC3CN(c4ccccc4)CC3C2)cn1 (stereo unspecified) | 3 | -0.43
9 | C[C@@H](C(=O)NCc1ccco1)n1nc(-c2ccccc2)c2cc(Cl)ccc21 | 1 | -0.28
10 | O=C(NCc1nnc2n1CCC2)C1CC1c1cccc(F)c1F (stereo unspecified) | -5 | 0.71
11 | c1cc(-c2noc(COC[C@H]3CCCO3)n2)cs1 | -12 | 2.33
12 | c1csc(-c2nc(COc3ccccc3-c3nnc[nH]3)cs2)c1 | -18 | 1.79
13 | CCc1nc2ccccc2n1[C@@H](CC)C(=O)NCCCn1ccnn1 | -5 | 1
14 | CC(C)CCN(C(=O)c1cc2ccccc2[nH]1)C1CC1 | -3 | 0.35
15 | O=c1c2c(ncn1CCOCC(F)F)[nH]c1ccccc12 | -8 | 1.49
16 | O=C1C[C@H]2CC[C@@H](CN1)N2c1ncccc1F | -8 | 1.38
17 | Oc1nnnc2c1cnn2-c1ccccc1 | 33 | -3.69
18 | O=C1CN(Cc2cccc(OC(F)(F)F)c2)CCCN1 | -3 | 0.42
19 | Cc1nn(C)c(C)c1C(=O)N1C[C@@H]2CC[C@H]1CN(CCCc1ccccc1)C2 | 0 | 0.08
20 | Cn1cccc1C(=O)NCCCc1nnc(N)s1 | -16 | 1.48
21 | COCCNC(=O)C1CC(c2cccc(C)c2)CN(Cc2ccccc2F)C1 (stereo unspecified) | -3 | 0.34
22 | Cn1ccnc1N1CCN(CC(=O)N[C@](C)(C#N)C2CC2)CC1 | 2 | -0.25

Row | SMILES | % Inhibition [%] | Z score
23 | COc1ccc(NC(=O)c2ccc(CN3C(=O)CNC3=O)cc2)c(OC)c1 | -7 | 1.32
24 | COc1c(C)cc(S(=O)(=O)Nc2ccc3c(c2)C(=O)N(C)CCO3)cc1C | -14 | 2.51
25 | COc1cccnc1C(=O)NCc1cc2n(n1)CCCC2 | -26 | 3.58
26 | CCc1[nH]nc(-c2ccccc2OC)c1NC(=O)Cc1ccc(OC)cc1 | -12 | 1.59
27 | CO[C@H]1COC[C@@H]1NC(=O)Cc1c(Cl)cccc1Cl | -12 | 1.44
28 | CCO[C@H]1COC[C@@H]1NC(=O)c1n[nH]nc1C | 0 | 0.03
29 | Cc1cc2c(cc1-c1ccnc(Nc3ccc(F)cc3)n1)NC(C)(C)C[C@@H]2C | -17 | 2.25
30 | Cc1cc(-c2nc3cc(F)ccc3n2C)ccc1NC(=O)N1CC[C@H](N)C1 | -13 | 1.79
31 | CCc1cnc(C)nc1N1CCC2(CC1)C[C@H](c1ccccc1)C(=O)N2C | 0 | -0.07
32 | Cc1cc(C(=O)NCCN(C2CCOCC2)S(=O)(=O)N(C)C)c(C)o1 | -4 | 0.58
33 | COc1ccc(CNC(=O)c2n[nH]c3c2CCc2ccccc2-3)cc1 | -13 | 1.13
34 | O=C(NC(c1cccc(F)c1F)C(F)(F)F)C1CCOC1 (stereo unspecified) | -8 | 0.81
35 | CCN(CC)Cc1ccc2c(c1)CN(C(=O)c1cccc(OC)c1)CCO2 | 6 | -1.21
36 | CCn1cnnc1CN(C)C(=O)CCCc1cn[nH]c1 | -3 | 0.43
37 | O=C(c1cn(C(c2ccccc2)c2ccccc2)nn1)N1CCC[C@H](CO)C1 | -25 | 3.76
38 | C[C@H]1CN(Cc2ccncc2F)CCC1=O | 5 | -0.86
39 | CCN(C)c1ccc(C=Cc2nc(C(=O)O)ccc2C#N)cn1 | 9 | -0.77
40 | Cc1ncsc1CCN(C)c1nc(C(N)=O)cs1 | -1 | 0.14
41 | CCOC(=O)c1sc2nc(-c3ccc(C)cc3)c(NCc3ccc(Cl)cc3)n2c1C | -9 | 0.97
42 | Cc1cc(NC(=O)c2cc(S(=O)(=O)N3CCN(C)CC3)cs2)no1 | -20 | 2.31
43 | Cc1cccc(-n2nc(C)c(CCC(=O)NCc3ccccc3)c2Oc2ccccc2)c1 | -21 | 2.31
